According to US20220251163A1 (Sinopep-Allsino Biopharmaceutical Co., Ltd., priority 2019, published 2022):
Part of at least one peptide drawing is inferred or uncertain, most often the ends.

How the values were obtained:
ob/ob mice = test: Blood glucose reducing experiment, single subcutaneous injection in ob/ob mice; assay type: in vivo; details: for Blood glucose at different time after administration, 0 h / Decrease rate of blood glucose at different time after administration, 2 h / Blood glucose at different time after administration, 2 h / Decrease rate of blood glucose at different time after administration, 4 h / Blood glucose at different time after administration, 4 h / Decrease rate of blood glucose at different time after administration, 6 h / Blood glucose at different time after administration, 6 h / Decrease rate of blood glucose at different time after administration, 10 h / Blood glucose at different time after administration, 10 h / Decrease rate of blood glucose at different time after administration, 24 h / Blood glucose at different time after administration, 24 h / Decrease rate of blood glucose at different time after administration, 34 h / Blood glucose at different time after administration, 34 h / Decrease rate of blood glucose at different time after administration, 48 h / AUC0-24 h Glu / AUC0-24 h Glu Decrease rate: 100 μg/kg single s.c.; for Blood glucose at different time after administration, 0 h: 0 h (before administration); for Blood glucose at different time after administration, 0 h / Blood glucose at different time after administration, 2 h / Blood glucose at different time after administration, 4 h / Blood glucose at different time after administration, 6 h / Blood glucose at different time after administration, 10 h / Blood glucose at different time after administration, 24 h / Blood glucose at different time after administration, 34 h / AUC0-24 h Glu: X ± s, n = 7; for AUC0-24 h Glu: blood glucose curve area within 24 h; for AUC0-24 h Glu Decrease rate: versus model control group
[1] = Effect on random weight of ob/ob mice after single subcutaneous injection; assay type: in vivo; details: for Changes of random body weight at different time after administration, 0 h / Random body weight at different time after administration, 0 h / Changes of random body weight at different time after administration, 24 h / Random body weight at different time after administration, 24 h / Changes of random body weight at different time after administration, 48 h / Random body weight at different time after administration, 48 h: 100 μg/kg single s.c., X ± s, n = 7

Compound	Blood glucose at different time after administration, 0 h (ob/ob mice; ob/ob mice)	Decrease rate of blood glucose at different time after administration, 2 h (ob/ob mice; ob/ob mice)	Blood glucose at different time after administration, 2 h (ob/ob mice; ob/ob mice)	Decrease rate of blood glucose at different time after administration, 4 h (ob/ob mice; ob/ob mice)	Blood glucose at different time after administration, 4 h (ob/ob mice; ob/ob mice)	Decrease rate of blood glucose at different time after administration, 6 h (ob/ob mice; ob/ob mice)	Blood glucose at different time after administration, 6 h (ob/ob mice; ob/ob mice)	Decrease rate of blood glucose at different time after administration, 10 h (ob/ob mice; ob/ob mice)	Blood glucose at different time after administration, 10 h (ob/ob mice; ob/ob mice)	Decrease rate of blood glucose at different time after administration, 24 h (ob/ob mice; ob/ob mice)	Blood glucose at different time after administration, 24 h (ob/ob mice; ob/ob mice)	Decrease rate of blood glucose at different time after administration, 34 h (ob/ob mice; ob/ob mice)	Blood glucose at different time after administration, 34 h (ob/ob mice; ob/ob mice)	Decrease rate of blood glucose at different time after administration, 48 h (ob/ob mice; ob/ob mice)	AUC0-24 h Glu (ob/ob mice; ob/ob mice)	AUC0-24 h Glu Decrease rate (ob/ob mice; ob/ob mice)	Changes of random body weight at different time after administration, 0 h [1]	Random body weight at different time after administration, 0 h [1]	Changes of random body weight at different time after administration, 24 h [1]	Random body weight at different time after administration, 24 h [1]	further results
CC[C@H](C)[C@H](NC(=O)[C@H](CC(C)C)NC(=O)[C@H](Cc1c[nH]c2ccccc12)NC(=O)[C@H](CCC(N)=O)NC(=O)[C@@H](NC(=O)[C@H](Cc1ccccc1)NC(=O)[C@H](C)NC(=O)[C@H](CCCCNC(=O)COCCOCCNC(=O)COCCOCCNC(=O)CC[C@H](NC(=O)CCCCCCCCCCCCCCCCC(=O)O)C(=O)O)NC(=O)[C@H](CCC(N)=O)NC(=O)[C@H](C)NC(=O)[C@@H](NC(=O)[C@H](CCCCN)NC(=O)[C@H](CC(=O)O)NC(=O)[C@H](CC(C)C)NC(=O)C1(NC(=O)[C@@H](NC(=O)[C@H](CO)NC(=O)[C@H](Cc2ccc(O)cc2)NC(=O)[C@H](CC(=O)O)NC(=O)[C@H](CO)NC(=O)[C@@H](NC(=O)[C@H](Cc2ccccc2)NC(=O)[C@@H](NC(=O)CNC(=O)[C@H](CCC(=O)O)NC(=O)C2(NC(=O)[C@@H](N)Cc3ccc(O)cc3)CCC2)[C@@H](C)O)[C@@H](C)O)[C@@H](C)CC)CCC1)[C@@H](C)CC)C(C)C)C(=O)N[C@@H](C)C(=O)NCC(=O)NCC(=O)N1CCC[C@H]1C(=O)N[C@@H](CO)C(=O)N[C@@H](CO)C(=O)NCC(=O)N[C@@H](C)C(=O)N1CCC[C@H]1C(=O)N1CCC[C@H]1C(=O)N1CCC[C@H]1C(=O)N[C@@H](CO)C(N)=O [ID NO: 2]	20.62 ± 1.03 mmol/L	55.7%	9.14 ± 0.83 mmol/L	56.6%	8.95 ± 0.84 mmol/L	59.6%	8.33 ± 1.42 mmol/L	59.7%	8.31 ± 1.02 mmol/L	58.7%	8.51 ± 0.86 mmol/L	56.6%	8.95 ± 0.87 mmol/L	12.7%	216.15 ± 18.86 mmol·h/L	57.7%	0.0 ± 0.0 g	43.3 ± 0.8 g	-2.9 ± 0.2 g	40.3 ± 0.8 g	blood glucose reducing effect (in words) (ob/ob mice; ob/ob mice, administration concentration 100 μg/kg, FIG. 1 to FIG. 3): almost consistent with that of Semaglutide; random blood glucose (in words) (ob/ob mice; type 2 diabetes ob/ob mice, single subcutaneous injection): comparable to that of the equal dose of Semaglutide; Changes of random body weight at different time after administration, 48 h [1]: -1.9 ± 0.2 g; Random body weight at different time after administration, 48 h [1]: 41.3 ± 0.8 g; effect on random weight compared with Semaglutide (in words) ([1]; single subcutaneous injection, equal dose): basically equivalent to that of the equal dose of Semaglutide
CC[C@H](C)[C@H](NC(=O)[C@H](CC(C)C)NC(=O)[C@H](Cc1c[nH]c2ccccc12)NC(=O)[C@H](CCC(N)=O)NC(=O)[C@@H](NC(=O)[C@H](Cc1ccccc1)NC(=O)[C@H](C)NC(=O)[C@H](CCCCNC(=O)COCCOCCNC(=O)COCCOCCNC(=O)CC[C@H](NC(=O)CCCCCCCCCCCCCCCCC(=O)O)C(=O)O)NC(=O)[C@H](CCC(N)=O)NC(=O)[C@H](C)NC(=O)[C@@H](NC(=O)[C@H](CCCCN)NC(=O)[C@H](CC(=O)O)NC(=O)[C@H](CC(C)C)NC(=O)C1(NC(=O)[C@@H](NC(=O)[C@H](CO)NC(=O)[C@H](Cc2ccc(O)cc2)NC(=O)[C@H](CC(=O)O)NC(=O)[C@H](CO)NC(=O)[C@@H](NC(=O)[C@H](Cc2ccccc2)NC(=O)[C@@H](NC(=O)CNC(=O)[C@H](CCC(=O)O)NC(=O)C2(NC(=O)[C@@H](N)Cc3ccc(O)cc3)CCCC2)[C@@H](C)O)[C@@H](C)O)[C@@H](C)CC)CCCC1)[C@@H](C)CC)C(C)C)C(=O)N[C@@H](C)C(=O)NCC(=O)NCC(=O)N1CCC[C@H]1C(=O)N[C@@H](CO)C(=O)N[C@@H](CO)C(=O)NCC(=O)N[C@@H](C)C(=O)N1CCC[C@H]1C(=O)N1CCC[C@H]1C(=O)N1CCC[C@H]1C(=O)N[C@@H](CO)C(N)=O [ID NO: 3]	20.45 ± 0.91 mmol/L	50.6%	10.11 ± 1.01 mmol/L	53.4%	9.52 ± 1.02 mmol/L	52.9%	9.63 ± 2.42 mmol/L	52.3%	9.76 ± 1.13 mmol/L	51.1%	10.01 ± 1.42 mmol/L	43.5%	11.56 ± 0.97 mmol/L	16.6%	246.51 ± 24.91 mmol·h/L	51.7%	0.0 ± 0.0 g	43.2 ± 0.5 g	-1.5 ± 0.2 g	41.6 ± 0.6 g	Changes of random body weight at different time after administration, 48 h [1]: -0.9 ± 0.2 g; Random body weight at different time after administration, 48 h [1]: 42.1 ± 0.6 g
